# Inconclusive means that the source gave no clear call. Such entries were picked first, then a sample of the others. For some of these results: Where the call is inconclusive, the potency comes from a doubtful curve fit. The source made the active and inactive calls. Calls come from the whole dose curve; as a rule, active = well fitted cell-killing curve with a large enough effect; inconclusive = small, poorly fitted or top-dose-only effect, or effect the other way; inactive = flat fitted curve, though single readings scatter.
# Tested on: JEG-3
# Test: Primary qHTS to identify gynecologic anti-cancer compounds using libraries of approved drugs and bioactive compounds (AID 1345084); note: nearly all actives have a fitted effect of over 55% in size
# Settings: Gynecologic cancer cell panel viability, ATPlite luminescence, 48 h; series mostly up to 57.5 µM; activity change, negative = cytotoxicity: at the top concentration
# Outline: (§1)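 Luminescence from the ATPlite ATP-monitoring reagent indicates viable cell number; lower signal means cytotoxicity. Cells received compound 16 h after seeding and were exposed for 48 h across five concentrations.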
# % is set by controls: 0 for no effect and ±100 for the full control effect; potency is the fitted concentration of half-maximal effect; tags give direction and shape of the fitted curve.
Compound,"activity change, negative = cytotoxicity",Potency
CN(C)CC#CCCC(=O)C(O)(c1ccccc1)C1CCC1 (configuration not stated),inactive: 9.34%,
CN1C(=O)CC(c2ccccc2)C1=O (configuration not stated),inactive: 3.79%,
OC[C@H]1O[C@@H](OCCc2ccccc2)[C@H](O[C@@H]2OC[C@@H](O)[C@H](O)[C@H]2O)[C@@H](O)[C@@H]1O,inactive: -3.52% [at 25.3 µM],
CC(=O)[C@H]1CC[C@H]2[C@@H]3C=CC4=CC(=O)CC[C@@]4(C)[C@@H]3CC[C@]12C,,inactive
O=[N+]([O-])c1ccc(Oc2ccc3c(c2)CCC(c2ccccc2)O3)nc1 (configuration not stated),inactive: 27.1%,
CC1OC(OC2C(O)COC(O[C@@H]3[C@@H](O)[C@@H](O)[C@H](OC4C(OC(=O)[C@]56CCC(C)(C)CC5C5=CCC7[C@@]8(C)C[C@H](O)[C@H](OC9OC(CO)C(O)C(O)C9O)[C@@](C)(CO)C8[C@H](O)C[C@@]7(C)[C@]5(C)CC6)OCC(O)C4O)O[C@H]3C)C2O)C(O)C(O)C1O (some centres not stated),inactive: -13.2% [at 6.55 µM],
COc1cc(C(=O)OC(COCCC(C)C)CN2CCOCC2)cc(OC)c1OC (configuration not stated),inactive: 13.5%,

# Tested on: OV90
# Test: as above
# Settings: Gynecologic cancer cell panel viability, ATPlite luminescence, 48 h; series mostly up to 57.5 µM; activity change, negative = cytotoxicity: at the top concentration
# Outline: as §1
Compound,"activity change, negative = cytotoxicity",Potency
C/C=C/c1cc(OC)c2c(c1)[C@@H](C)[C@@H](c1ccc(O)c(OC)c1)O2,inactive: -2.62% [at 38.5 µM],
CC(C)O[C@@H]1O[C@H](CO)[C@@H](O)[C@H](O)[C@H]1O,inactive: 12.2%,
COc1ccc(NC(=O)c2ccc(-c3ccc(-c4nnc(C)o4)cc3C)cc2)cc1N1CCN(C)CC1,inactive: -8.93%,
C=CC(C)(C)c1[nH]c2ccccc2c1C[C@@H]1NC(=O)[C@H](C)NC1=O,inactive: 7.47% [at 38.5 µM],
O=C(NC[C@H](O)CN1CCc2ccccc2C1)c1ccnc(NC2CCC2)c1,,"inconclusive: 39.8 µM [cytotoxic, single point]"
CC(=O)[C@@]1(O)CC[C@H]2[C@@H]3CCC4=CC(=O)CC[C@]4(C)[C@H]3CC[C@@]21C,inactive: -6.55%,

# Tested on: PA-1
# Test: as above
# Settings: Gynecologic cancer cell panel viability, ATPlite luminescence, 48 h; series mostly up to 57.5 µM; activity change, negative = cytotoxicity: at the top concentration
# Outline: as §1
Compound,Potency,"activity change, negative = cytotoxicity"
O=C(NCCCn1ccnc1)c1cc(-c2ccco2)on1,"inconclusive: 15.8 µM [cytotoxic, partial curve]",
CC(NCCCc1cccc(C(F)(F)F)c1)c1cccc2ccccc12 (configuration not stated),,inactive: 7.66% [at 25.3 µM]
COc1ccc([C@H](Cc2ccncc2)c2ccccc2)cc1OC1CCCC1,,inactive: 8.46%
CCCCc1ccc(NS(=O)(=O)c2ccc(F)cc2)cc1,,inactive: 10.9%
COc1ccc(NC(=O)c2ccc(-c3ccc(-c4nnc(C)o4)cc3C)cc2)cc1N1CCN(C)CC1,"inconclusive: 39.8 µM [cytotoxic, partial curve, poor fit]",
OC[C@H]1O[C@@H](OCCc2ccccc2)[C@H](O[C@@H]2OC[C@@H](O)[C@H](O)[C@H]2O)[C@@H](O)[C@@H]1O,,inactive: -13.8% [at 25.3 µM]
O=C(NC/C=C/CN1CCN(c2cccc(Cl)c2Cl)CC1)c1ccc(-c2ccccn2)cc1,"inconclusive: 39.8 µM [cytotoxic, single point]",
COc1ccc(C(=O)Nc2c(Cl)cncc2Cl)cc1OC1CCCC1,,inactive: 3.45%
CNc1nc(C)nc(N[C@H]2CCC[C@@H](C(=O)NCc3ccc(C#N)cc3C(F)(F)F)C2)n1,"inconclusive: 7.08 µM [rising, single point]",
C=C1CCC2C(C)(CO[C@@H]3O[C@H](CO)[C@@H](O)[C@H](O)[C@H]3O)C(O)CCC2(C)C1C(=O)CC1=CCOC1=O (some centres not stated),,inactive: 6.54% [at 25.3 µM]
CN1C(=O)c2ccccc2NC(=O)[C@]12O[C@@H]2c1cccc(O)c1,,inactive: 4.44%

# Tested on: SKOV3
# Test: as above
# Settings: Gynecologic cancer cell panel viability, ATPlite luminescence, 48 h; series mostly up to 57.5 µM; activity change, negative = cytotoxicity: at the top concentration
# Outline: as §1
Compound,"activity change, negative = cytotoxicity",Potency
O=C(NCCCn1ccnc1)c1cc(-c2ccco2)on1,inactive: 1.95%,
COC1(CC(C)C)NC(=O)C(O)(Cc2ccccc2)NC1=O (configuration not stated),inactive: 1.72% [at 38.5 µM],
C=C1CCC2C(C)(C)CCCC2(C)C1CC/C(C)=C\CO (configuration not stated),,"inconclusive: 6.31 µM [rising, single point]"
C=C1CC2C(C)(CCC(=O)O)C(C(C)(C)O)CCC2(C)C2C(=O)OC(C)(C(=O)OC)C(=O)C12C (configuration not stated),inactive: -4.91% [at 25.3 µM],
CC(C)O[C@@H]1O[C@H](CO)[C@@H](O)[C@H](O)[C@H]1O,inactive: 0.413%,
O=c1[nH]ccc2nc(-c3ccc(CN4CCC(c5nc(-c6ccccn6)n[nH]5)CC4)cc3)c(-c3ccccc3)cc12,,"inconclusive: 10 µM [cytotoxic, partial curve]"
O=C(NC/C=C/CN1CCN(c2cccc(Cl)c2Cl)CC1)c1ccc(-c2ccccn2)cc1,,"inconclusive: 8.91 µM [rising, single point]"
CC(=O)OC1C(OC(=O)c2ccccc2)C2C(C)(C)CCC(OC(C)=O)C2(C)C23CCC(C)(C2)C(=O)CC13 (configuration not stated),inactive: -2.43% [at 25.3 µM],
COC(=O)[C@H](Cc1ccc([N+](=O)[O-])cc1)NC(=O)c1cccc2ccccc12,,"inconclusive: 39.8 µM [rising, single point]"
CC(C)[C@@H](c1ccc(C(F)(F)F)cc1CN(Cc1cc(C(F)(F)F)cc(C(F)(F)F)c1)c1nnn(C)n1)N1CCC(C(=O)O)CC1,inactive: 4.3%,
O=[N+]([O-])c1ccc(Oc2ccc3c(c2)CCC(c2ccccc2)O3)nc1 (configuration not stated),inactive: 3.03%,
COc1cc(C(=O)OC(COCCC(C)C)CN2CCOCC2)cc(OC)c1OC (configuration not stated),inactive: 0%,
O=C(Nc1cccnc1)c1cc(-c2ccnc(F)c2)ccc1OCc1ccccc1,,"inconclusive: 1.41 µM [cytotoxic, single point]"
